In all, about 33,000 sequences were measured (“E-score (-0.5 to 0.5)”: median about -0.035, highest 2% from about 0.34 on). The list shows a part of the results.
These sequences were tested against T1, Mot3 (UniProt P54785) (assay: PBM E-score (8-mer binding enrichment) (E-score (-0.5 to 0.5)); higher = stronger / more preferred TF binding; most listed sequences are background and not binding sites). Conditions: protein concentration: 200 nM; construct: GST-full length.
T1 sequence: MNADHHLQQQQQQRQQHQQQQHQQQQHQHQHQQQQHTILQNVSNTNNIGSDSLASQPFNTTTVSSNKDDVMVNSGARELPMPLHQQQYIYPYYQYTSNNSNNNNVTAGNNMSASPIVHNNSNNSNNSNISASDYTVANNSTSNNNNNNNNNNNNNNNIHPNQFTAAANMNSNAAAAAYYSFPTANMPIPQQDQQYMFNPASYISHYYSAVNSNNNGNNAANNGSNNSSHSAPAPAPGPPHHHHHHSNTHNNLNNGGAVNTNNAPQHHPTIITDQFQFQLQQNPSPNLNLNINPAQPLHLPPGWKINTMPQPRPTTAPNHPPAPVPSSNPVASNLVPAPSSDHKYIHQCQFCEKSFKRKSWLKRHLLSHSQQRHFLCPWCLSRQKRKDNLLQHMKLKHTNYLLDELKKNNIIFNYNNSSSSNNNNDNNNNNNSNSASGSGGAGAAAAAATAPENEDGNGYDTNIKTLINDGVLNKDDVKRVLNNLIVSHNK
Procedure: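 Universal 'all 10-mer' protein binding microarrays (Agilent AMADID 015681) probed with GST-tagged S. cerevisiae TFs (full-length or DBD) made by in vitro transcription/translation (PURExpress), about 100-200 nM. Bound TF was detected with fluorescent anti-GST. Each ungapped 8-mer (which stands for itself and its reverse complement) is scored by the PBM enrichment score (E-score), a modified Wilcoxon-Mann-Whitney statistic from -0.5 to +0.5, computed with the Universal PBM Analysis Suite. Scale: above 0.35 generally sequence-specific binding.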

| Sequence | PBM E-score |
| --- | --- |
| CTCTCTGC | -0.112 |
| CGGACAAG | -0.221 |
| CACTCCCG | -0.251 |
| GAGCGACC | -0.321 |
| CAAACCCA | 0.0262 |
| CTAAGAAG | 0.0485 |
| CGTATCCA | 0.00391 |
| GAATAGTA | 0.0165 |
| GAAATGTC | -0.0691 |
| AAGATTGA | 0.035 |
| GGATAAGA | -0.141 |
| AACACGCC | 0.281 |
| AGTAAATC | 0.0325 |
| GCGGGCCA | -0.267 |
| GTGTAATA | 0.375 |
| ATGGCCAA | -0.176 |
| CTCTTGTC | -0.0548 |
| TACATTAA | 0.289 |
| AGATTTAG | 0.135 |
| AATTATCC | 0.0544 |
| ACATGGTA | 0.296 |
| ATTCATGA | -0.0408 |
| CCACCGAA | 0.0128 |
| ATGAGACC | 0.079 |
| ACGCCATC | -0.0834 |

| Sequence | PBM E-score |
| --- | --- |
| CAAGGGCA | 0.128 |
| ATCAAAGG | 0.0381 |
| CGCGTTCA | 0.234 |
| ATACATGC | 0.361 |
| CATGCCGG | -0.0291 |
| GCAGGAAC | 0.463 |
| CTATGACA | 0.0633 |
| GTACACAA | 0.323 |
| GTACAACA | 0.297 |
| ACGATGGC | -0.161 |
| AACAGAAA | 0.108 |
| CGTCTTGA | -0.139 |
| AGTGCGAC | -0.137 |
| CGAAAGAA | 0.00039 |
| AGCGAGGG | -0.275 |
| ACCCGAGG | -0.174 |
| TGTGTTAA | 0.401 |
| TACTGGGA | 0.0168 |
| CTCGTTGC | 0.246 |
| ATGGTTTA | -0.0389 |
| CCATTATA | -0.0283 |
| GATCATCA | -0.0369 |
| AGGCGACC | 0.215 |
| GCCAGCCC | -0.0527 |
| CCGTAAAC | 0.0293 |

| Sequence | PBM E-score |
| --- | --- |
| CCATGGAC | -0.152 |
| ATCGATCA | -0.0672 |
| TCACCTGA | -0.0449 |
| ACAGAAGT | -0.0833 |
| CGAGCCTC | -0.391 |
| CCGCAGGA | 0.0411 |
| ACGAAGGC | 0.285 |
| ACCGAAGC | -0.108 |
| ATCGCGCG | 0.0484 |
| CGCCGATA | -0.116 |
| ACGCCTCT | -0.0227 |
| ACATTAGG | 0.226 |
| GGCCTGAC | -0.288 |
| ACTGGAAA | -0.0414 |
| GACAAGCA | -0.0222 |
| GAGCGAGA | -0.0812 |
| ATTCTTTC | -0.0219 |
| AAGCTCGT | -0.0262 |
| CACTGGAA | -0.0105 |
| GAACATTC | 0.0734 |
| AATTTGCG | 0.0221 |
| GCTGTACA | 0.00276 |
| ATGTGGGA | -0.142 |
| CGAGGGTC | -0.201 |
| CTTGACAA | 0.223 |

| Sequence | PBM E-score |
| --- | --- |
| GAGGCGAA | -0.144 |
| GAGGCTAC | -0.201 |
| AATAGGCA | 0.479 |
| AACAGCGA | -0.055 |
| ATGAACAA | 0.151 |
| GAAGGACC | -0.328 |
| GAATAGCC | -0.281 |
| CGAGTTTC | -0.189 |
| AGTGGTTG | 0.0543 |
| ACGGCGTG | 0.0736 |
| TAGCAACA | 0.102 |
| CCGCTAGC | -0.29 |
| ACCTTACC | 0.105 |
| AGCTGTAT | -0.107 |
| GGACGCGA | -0.126 |
| CCTCTGCC | -0.287 |
| ACCAATAG | -0.0857 |
| AAGCACCA | -0.1 |
| AATGCCCG | -0.316 |
| ATTTGCCG | 0.0365 |
| CTCTCCTA | 0.00346 |
| AACATACG | 0.237 |
| AGTGCTTG | -0.00398 |
| CGAATGTC | -0.114 |
| TCCATGCA | 0.0555 |

| Sequence | PBM E-score |
| --- | --- |
| CACTCCGA | -0.15 |
| AGCACGCT | -0.191 |
| ACTCTACA | 0.174 |
| ACGAAGGA | 0.0632 |
| ACTGTAGG | 0.248 |
| TCTTAAAA | -0.00181 |
| CTTAGTAA | 0.0949 |
| GTTATGGA | 0.134 |
| TCATTAAA | 0.159 |
| CTTACGTC | 0.105 |
| AAAGGTCG | -0.175 |
| GACTGAGA | -0.0128 |
| CTACTCCA | 0.00062 |
| ACTCGCCT | -0.161 |
| AGGGTGGC | -0.18 |
| CGCTCGAG | -0.0778 |
| CATGGTGA | -0.056 |
| GCGTCCCC | -0.362 |
| CTCCACGC | -0.268 |
| CCCTAGTA | 0.029 |
| ACCGACCT | -0.107 |
| GATGGCCC | -0.229 |
| GAAGACTA | -0.0617 |
| GATAACAA | 0.226 |
| ATGGCGTA | -0.00384 |

| Sequence | PBM E-score |
| --- | --- |
| ACTAACGG | -0.245 |
| GCTACTTA | 0.0159 |
| ACCGGACC | -0.161 |
| CCAATGTC | -0.209 |
| CATGTGAA | 0.243 |
| CATGGCTC | -0.144 |
| GGTCAAAA | 0.106 |
| CCCAGGGC | -0.256 |
| AAAACTAC | 0.0655 |
| AGCTGGAC | -0.0576 |
| CTACCTAA | 0.00387 |
| GACTCTGC | -0.215 |
| GGAATGTA | 0.0681 |
| CTTTGGCA | -0.168 |
| GGGCCAAC | -0.115 |
| AAAAGGAA | 0.36 |
| AACAGGAT | 0.0971 |
| AGACCTCA | -0.0868 |
| AGGACTCA | -0.0958 |
| AACCTGAC | -0.0317 |
| AGCTGAAA | -0.0409 |
| AGGTACTC | 0.333 |
| ACCTGCGG | 0.0115 |
| CACGATCA | 0.145 |
| CGCATGCC | -0.0357 |

| Sequence | PBM E-score |
| --- | --- |
| AATGTCCT | 0.0196 |
| ATGGCTCA | -0.291 |
| GAGGGATC | -0.168 |
| AGTCGGCG | -0.0568 |
| GAAGTTTA | 0.108 |
| ACTCGTGC | -0.146 |
| CCAACGCA | -0.0241 |
| TAAGCAGA | -0.0481 |
| GACGACTC | -0.285 |
| ACCTTAGT | -0.00647 |
| CCCAACGA | -0.0748 |
| GAAGTTGC | -0.0479 |
| ACCGATGG | -0.0753 |
| AGCTATAC | 0.0128 |
| CGACATAA | 0.0835 |
| CTCGCAGC | -0.271 |
| CAGTGGCG | -0.266 |
| AGATGCTC | 0.135 |
| GTAGGCCA | 0.00764 |
| CGTCCCAG | -0.196 |
| ACGTGTTG | 0.338 |
| AGCTCCAC | -0.159 |
